Results taken from the supplement of paper PMC10338343.
± gives the standard deviation. This is a selection; strong and weak results do not stand in their true shares.

Tested on: MIWI (PIWIL1) piRISC loaded with L1MC piRNA (30 nt)
Assay: pre-steady-state target cleavage rate (min^-1); MIWI and MILI are mouse PIWI proteins and EfPiwi is from a freshwater sponge; tags in brackets are library labels; higher = faster piRNA-guided slicing of the target
Conditions: guide: L1MC piRNA 5'p-UAACUAAAUACUAUGCAAGCUGUAGGUCCU
In short: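 The pre-steady-state cleavage rate was obtained by Cleave-'n-Seq with a burst-and-steady-state fit. A transcribed, DNA-blocked target RNA library (0.1 nM) was mixed with 1 nM active affinity-purified piRISC carrying one synthetic guide, with or without 500 nM GTSF1 partner protein, in HEPES–potassium acetate buffer at 33 °C for 0–8 or 0–960 min. Uncleaved targets were sequenced and normalised to depth and to weakly complementary targets, with three trials pooled and k3 capped at 0.0001 min^-1.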

[1] = auxiliary factor: 500 nM mouse GTSF1
[2] = auxiliary factor: none (no GTSF1)

UCCUGGAACAGCUUGCAUAGUAUUUUGUAA
pre-steady-state target cleavage rate [1]: 0.151 ± 0.03
pre-steady-state target cleavage rate [2]: 0.0187 ± 0.0045

UCCUGGAUGAGGUUGCAUAGUAUUUAGUUA
pre-steady-state target cleavage rate [1]: 0.274 ± 0.022
pre-steady-state target cleavage rate [2]: 0.00581 ± 0.0018

AGCACCUUCAGCUUGCAUAGUAUUUAGUUA
pre-steady-state target cleavage rate [1]: 0.711 ± 0.089
pre-steady-state target cleavage rate [2]: 0.0548 ± 0.014

UCGACCUACAGCAUGCAUUGUAUUUAGUUA
pre-steady-state target cleavage rate [1]: 0.944 ± 0.04
pre-steady-state target cleavage rate [2]: 0.0101 ± 0.0026

UGGACCUACAGCUUGCAUAAUAUUUAGUUA
pre-steady-state target cleavage rate [1]: 0.633 ± 0.026
pre-steady-state target cleavage rate [2]: 0.0425 ± 0.0076

UCCACCUACAGCUUGCAUAGUAAAUAGUUA
pre-steady-state target cleavage rate [1]: 0.426 ± 0.039
pre-steady-state target cleavage rate [2]: 0.00722 ± 0.0018

UCCUGCUAGAGCUUGCAUAGUAUUUAGAUA
pre-steady-state target cleavage rate [1]: 0.242 ± 0.035
pre-steady-state target cleavage rate [2]: 0.0124 ± 0.003

UCGACCUACAGCUUGCAUAGUAUUAAGUAA
pre-steady-state target cleavage rate [1]: 0.408 ± 0.031
pre-steady-state target cleavage rate [2]: 0.0114 ± 0.0048

AGGUCCUACAGCUUGCAUAGUAUUUUGUUA
pre-steady-state target cleavage rate [1]: 0.792 ± 0.049
pre-steady-state target cleavage rate [2]: 0.0698 ± 0.014

UCCUGGUACAGCUUGCAUAGUAUGUUAGUUA
pre-steady-state target cleavage rate [1]: 0.373 ± 0.042
pre-steady-state target cleavage rate [2]: 0.00863 ± 0.0037

UCCUGCUACAGCUUGCAUAGAAUUUACUUA
pre-steady-state target cleavage rate [1]: 0.313 ± 0.058
pre-steady-state target cleavage rate [2]: 0.0078 ± 0.0019

UCCUGGAUGAGACUUGCAUAGUAUUUAGUUA
pre-steady-state target cleavage rate [1]: 0.22 ± 0.023
pre-steady-state target cleavage rate [2]: 0.00787 ± 0.0023

UCCUGGAUGUCCUCGCAUAGUAUUUAGUUA
pre-steady-state target cleavage rate [1]: 0.0152 ± 0.0041
pre-steady-state target cleavage rate [2]: 0.0054 ± 0.0019

UCCACCUACACCUUGGAUAGUAUUUAGUUA
pre-steady-state target cleavage rate [1]: 0.588 ± 0.064
pre-steady-state target cleavage rate [2]: 0.0236 ± 0.0034

UCCUGGAACACCUUGCAUAGAAUUUAGUUA
pre-steady-state target cleavage rate [1]: 0.208 ± 0.051
pre-steady-state target cleavage rate [2]: 0.00572 ± 0.0024

AGGACCUAGUGCUUGCAUAGUAUUUAGAAA
pre-steady-state target cleavage rate [1]: 0.19 ± 0.033
pre-steady-state target cleavage rate [2]: 0.00715 ± 0.0021

UCCUGGAUGAUGCUUGCAUAGUAUUUAGUUA
pre-steady-state target cleavage rate [1]: 0.659 ± 0.043
pre-steady-state target cleavage rate [2]: 0.0566 ± 0.01

UCCUGGUACAGCUUGCUUAGUAUUAAGUUA
pre-steady-state target cleavage rate [1]: 0.386 ± 0.071
pre-steady-state target cleavage rate [2]: 0.0178 ± 0.0056

UCCUCCUACAGCUUGGCAUAGUAUUUAGUUA
pre-steady-state target cleavage rate [1]: 0.831 ± 0.11
pre-steady-state target cleavage rate [2]: 0.0114 ± 0.0021

UCCUGGAUCAGCUUGGAUAGUAUUAAGUUA
pre-steady-state target cleavage rate [1]: 0.258 ± 0.033
pre-steady-state target cleavage rate [2]: 0.0129 ± 0.0046

UCCUGGAAGCAGCUUGCAUAGUAUUUAGUUA
pre-steady-state target cleavage rate [1]: 1.15 ± 0.052
pre-steady-state target cleavage rate [2]: 0.0705 ± 0.014

UCGACACUACAGCUUGCAUAGUAUUUAGUUA
pre-steady-state target cleavage rate [1]: 0.961 ± 0.061
pre-steady-state target cleavage rate [2]: 0.0557 ± 0.0088

UCCUCCUACAGCUUGCAUAGUAUAUAGAUA
pre-steady-state target cleavage rate [1]: 0.197 ± 0.031
pre-steady-state target cleavage rate [2]: 0.00345 ± 0.0023

UCGACCUUGAGCUUGCAUAGUAUUUACAAA
pre-steady-state target cleavage rate [1]: 0.309 ± 0.05
pre-steady-state target cleavage rate [2]: 0.0033 ± 0.0017

UCCUCCUACAGACUUGCAUAGUAUUUAGUUA
pre-steady-state target cleavage rate [1]: 0.828 ± 0.057
pre-steady-state target cleavage rate [2]: 0.0333 ± 0.006

UCCACCUACGAGCUUGCAUAGUAUUUAGUUA
pre-steady-state target cleavage rate [1]: 0.622 ± 0.073
pre-steady-state target cleavage rate [2]: 0.0286 ± 0.0055

UCCUGGAUCAGGCUUGCAUAGUAUUUAGUUA
pre-steady-state target cleavage rate [1]: 0.833 ± 0.032
pre-steady-state target cleavage rate [2]: 0.0744 ± 0.014

UCCUGCUACAGCUUGCAUAGUAUUUAUGUUA
pre-steady-state target cleavage rate [1]: 0.497 ± 0.036
pre-steady-state target cleavage rate [2]: 0.0171 ± 0.003

UCCUGCUACAGCUUGCAUAGUGAUUUAGUUA
pre-steady-state target cleavage rate [1]: 0.0926 ± 0.018
pre-steady-state target cleavage rate [2]: 0.00463 ± 0.0028

UCCUGCUACAGCUAGCAUAGUAUUUUGUUA
pre-steady-state target cleavage rate [1]: 0.957 ± 0.081
pre-steady-state target cleavage rate [2]: 0.0078 ± 0.0027

AGCACCUACAGGUUGCAUAGUAUUUAGUUA
pre-steady-state target cleavage rate [1]: 1.11 ± 0.26
pre-steady-state target cleavage rate [2]: 0.0115 ± 0.0035

UCCACCUAGAGCUUGCAUAGUAUUUAGAAA
pre-steady-state target cleavage rate [1]: 0.237 ± 0.04
pre-steady-state target cleavage rate [2]: 0.00281 ± 0.0027

UCCUGCUACAGCUUGCAUAGUAUUUGAGUUA
pre-steady-state target cleavage rate [1]: 0.384 ± 0.033
pre-steady-state target cleavage rate [2]: 0.0122 ± 0.0031

UCCUGGAUCACCUUGCAUACUAUUUAGUUA
pre-steady-state target cleavage rate [1]: 0.0963 ± 0.017
pre-steady-state target cleavage rate [2]: 0.00902 ± 0.002

UCCUGGUACAGUUGCAUAGUAUUUAGUUA
pre-steady-state target cleavage rate [1]: 0.487 ± 0.037
pre-steady-state target cleavage rate [2]: 0.00874 ± 0.0034

UCCUGGAACUGCUUGCAUAGUAUUUAGAUA
pre-steady-state target cleavage rate [1]: 0.21 ± 0.028
pre-steady-state target cleavage rate [2]: 0.012 ± 0.0039

UCCUGGAUGUGCAUGCAUAGUAUUUAGUAA
pre-steady-state target cleavage rate [1]: 0.0251 ± 0.0072
pre-steady-state target cleavage rate [2]: 0.00346 ± 0.0025

UCCUCCUUCAGCUUGCAUAGUAUUUACAAA
pre-steady-state target cleavage rate [1]: 0.358 ± 0.045
pre-steady-state target cleavage rate [2]: 0.00292 ± 0.002

UCCUCCUACAGCUUGGAAAGUAUUUAGUUA
pre-steady-state target cleavage rate [1]: 0.981 ± 0.036
pre-steady-state target cleavage rate [2]: 0.00576 ± 0.002

UCCUGGAUCACCUUGCAUAGUAUUUACAAA
pre-steady-state target cleavage rate [1]: 0.15 ± 0.037
pre-steady-state target cleavage rate [2]: 0.00391 ± 0.0029

UCCUGGAUCAGCGUGCAUAGUAUUUAGUUA
pre-steady-state target cleavage rate [1]: 1.09 ± 0.063
pre-steady-state target cleavage rate [2]: 0.0183 ± 0.0047

AGGACCUACAGCUUGCAUAGUAUUUGAGUUA
pre-steady-state target cleavage rate [1]: 0.815 ± 0.084
pre-steady-state target cleavage rate [2]: 0.0761 ± 0.016

UCCUGGAUGUGCUUGCAUAGUAGUUAGUUA
pre-steady-state target cleavage rate [1]: 0.0529 ± 0.0067
pre-steady-state target cleavage rate [2]: 0.0132 ± 0.005

UGGACCUACAGCUUGCAUACUAUAUAGUUA
pre-steady-state target cleavage rate [1]: 0.153 ± 0.013
pre-steady-state target cleavage rate [2]: 0.0155 ± 0.004

UCGACCAACAGCUUGCAUAGUAUUUACAAA
pre-steady-state target cleavage rate [1]: 0.491 ± 0.041
pre-steady-state target cleavage rate [2]: 0.00589 ± 0.0029

UCCUGGAUGAGCUUGGCAUAGUAUUUAGUUA
pre-steady-state target cleavage rate [1]: 0.332 ± 0.083
pre-steady-state target cleavage rate [2]: 0.00856 ± 0.0041

UGGACCUACAGCAUGCAUAGAAUUUAGUUA
pre-steady-state target cleavage rate [1]: 0.318 ± 0.041
pre-steady-state target cleavage rate [2]: 0.0107 ± 0.0035

UCGACCUACAGCUUGCUUAGAAUUUAGUUA
pre-steady-state target cleavage rate [1]: 0.264 ± 0.024
pre-steady-state target cleavage rate [2]: 0.00705 ± 0.0021

AGGUACCUACAGCUUGCAUAGUAUUUAGUUA
pre-steady-state target cleavage rate [1]: 1.35 ± 0.21
pre-steady-state target cleavage rate [2]: 0.481 ± 0.15

UCGACCUACAGCUUCAUAGUAUUUAGUUA
pre-steady-state target cleavage rate [1]: 1.14 ± 0.042
pre-steady-state target cleavage rate [2]: 0.0128 ± 0.0025

UCCUCCUACAGCUUGCAUUCUAUUUAGUAA
pre-steady-state target cleavage rate [1]: 0.108 ± 0.025
pre-steady-state target cleavage rate [2]: 0.00223 ± 0.0022

UCCUGGAUCAGCUUGCAUAGUAUUUGAGUUA
pre-steady-state target cleavage rate [1]: 0.521 ± 0.057
pre-steady-state target cleavage rate [2]: 0.0198 ± 0.005

UCCUGGAUGUGCUUGCAUAGUAUUAUGUUA
pre-steady-state target cleavage rate [1]: 0.0361 ± 0.0097
pre-steady-state target cleavage rate [2]: 0.00737 ± 0.0028

UCGACCUACAGCUUGCAUAGUUAUUAGUUA
pre-steady-state target cleavage rate [1]: 0.191 ± 0.018
pre-steady-state target cleavage rate [2]: 0.0154 ± 0.0025

UGGACCUACUGCUUGCAAAGUAUUUAGUUA
pre-steady-state target cleavage rate [1]: 1.23 ± 0.059
pre-steady-state target cleavage rate [2]: 0.0383 ± 0.0078

AGGACCUACAGGUUGCAUUGUAUUUAGUUA
pre-steady-state target cleavage rate [1]: 0.756 ± 0.043
pre-steady-state target cleavage rate [2]: 0.0327 ± 0.008

UCCUGGAACAGCUUGCAUUGUAUUUUGUUA
pre-steady-state target cleavage rate [1]: 0.386 ± 0.028
pre-steady-state target cleavage rate [2]: 0.0138 ± 0.0053

UCCUGGAUCAGCUUGCAUAGUAAUUACUUA
pre-steady-state target cleavage rate [1]: 0.116 ± 0.018
pre-steady-state target cleavage rate [2]: 0.00861 ± 0.0025

UCCUCCUUCACCUUGCAUAGUAUUUAGUUA
pre-steady-state target cleavage rate [1]: 0.719 ± 0.055
pre-steady-state target cleavage rate [2]: 0.0368 ± 0.0064

UCGACCUACAGCUUGCAUAGAAUAUAGUUA
pre-steady-state target cleavage rate [1]: 0.393 ± 0.034
pre-steady-state target cleavage rate [2]: 0.0127 ± 0.0033
